Experimental data as given in the BET-seq Pho4 binding data (Le et al. 2018).
The other results are listed elsewhere or left out. The energies were worked out here from pooled read counts, against the library average; single values are noisy.

Biological target: T1, Pho4 (S. cerevisiae) (UniProt P07270)
T1 sequence: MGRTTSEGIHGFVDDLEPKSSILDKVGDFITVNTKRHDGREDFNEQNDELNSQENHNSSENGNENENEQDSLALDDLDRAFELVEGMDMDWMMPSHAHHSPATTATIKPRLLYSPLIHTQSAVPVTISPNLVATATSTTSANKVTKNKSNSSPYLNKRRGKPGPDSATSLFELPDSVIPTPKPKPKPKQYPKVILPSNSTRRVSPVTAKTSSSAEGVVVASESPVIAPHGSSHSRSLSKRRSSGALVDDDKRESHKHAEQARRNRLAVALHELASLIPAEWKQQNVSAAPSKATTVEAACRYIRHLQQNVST
Test: relative binding free energy (BET-seq); higher = weaker binding
Details: reference: library average

Row | Sequence | relative binding free energy [kcal/mol]
1 | ATAGGCACGTGCTTTT | -0.06
2 | TGTGTCACGTGTGCTG | 0.06
3 | AGGTTCACGTGTGTCA | 0.29
4 | TAGTGCACGTGGCGAG | -0.18
5 | TGCTGCACGTGAGATT | 0.29
6 | GGATGCACGTGTAGAG | 0.01
7 | GTGTCCACGTGGGGAA | -0.13
8 | TGACTCACGTGGTAGT | 0.08
9 | TTAGTCACGTGACGTG | 0.21
10 | TCGGGCACGTGTTGCG | -0.23
11 | TGTCACACGTGGTCGG | -0.05
12 | TGATGCACGTGGGCTC | -0.1
13 | TCGATCACGTGTATGG | 0.19
14 | TGAATCACGTGTAATT | 0.18
15 | GTGCTCACGTGAGATT | 0.48
16 | TTACACACGTGATGGT | 0.12
17 | ATGTTCACGTGTGCGA | 0.27
18 | GGGGACACGTGGTTTG | 0.05
19 | TGGGTCACGTGGGTGG | -0.02
20 | TAAATCACGTGTGATG | 0.17
21 | TAGAGCACGTGGGGTC | -0.2
22 | AAATTCACGTGGTGTC | 0.14
23 | AAGGTCACGTGGTGGA | 0.07

Row | Sequence | relative binding free energy [kcal/mol]
24 | TTGAGCACGTGTTGGG | 0.01
25 | GTGCGCACGTGAAGGG | 0.3
26 | TTTAACACGTGAGGTA | 0.28
27 | AGTAACACGTGTTAAG | 0.03
28 | TAGTTCACGTGGAAAT | 0.24
29 | GTGCTCACGTGTAGTA | 0.13
30 | TAGTTCACGTGTAATT | 0.34
31 | ACGTACACGTGTGGGA | -0.01
32 | TTGAACACGTGGGTCG | -0.09
33 | ATTTTCACGTGGGCTT | 0.15
34 | AGTGTCACGTGCCGGA | -0.04
35 | CGTTTCACGTGATATT | 0.14
36 | TGGTCCACGTGGATGT | -0.01
37 | TAGTGCACGTGTAGGT | -0.05
38 | TCTTTCACGTGAGAGT | 0.39
39 | GAATGCACGTGATGTT | 0.2
40 | TATGGCACGTGCGGAG | -0.16
41 | TTAAACACGTGTGTGA | 0.11
42 | TTTGCCACGTGCGGAG | -0.05
43 | TTTTTCACGTGTGTCC | 0.29
44 | TGAGGCACGTGAATAT | 0.19
45 | TGGCGCACGTGGACTG | -0.12
46 | GAAGGCACGTGAAGTG | 0.24

Row | Sequence | relative binding free energy [kcal/mol]
47 | GGATGCACGTGATAGA | 0.15
48 | CTGAACACGTGCGGGG | 0.08
49 | TGCAGCACGTGGGAGA | -0.19
50 | AATATCACGTGTTGCG | 0.21
51 | GCGGGCACGTGGAGCG | -0.07
52 | ACGAACACGTGGGTGG | -0.16
53 | GTGCTCACGTGGGGTA | 0.14
54 | GATAGCACGTGGCTTT | -0.02
55 | GGTTGCACGTGAATGG | 0.41
56 | TTTAGCACGTGCGTTT | -0.09
57 | AGGTACACGTGAATTT | 0.24
58 | TTGGTCACGTGTTAGT | 0.18
59 | GGGAACACGTGATTTG | 0.13
60 | TGAGTCACGTGGTTTG | 0.17
61 | TTGGACACGTGCAGGA | -0.01
62 | TGAAGCACGTGGGAGA | -0.14
63 | TGTTTCACGTGCAGTA | 0.2
64 | GGCACCACGTGTGTTG | 0.08
65 | GGGCACACGTGGATGG | 0.09
66 | GGCATCACGTGTAGGT | 0.29
67 | TTGCGCACGTGTGTTT | -0.03
68 | TATGTCACGTGATCGC | 0.24
69 | AGGTTCACGTGCCGTT | 0.18

Row | Sequence | relative binding free energy [kcal/mol]
70 | GCATGCACGTGAGGTG | 0.27
71 | AGGGGCACGTGGATTG | -0.21
72 | TTTATCACGTGGTGAG | 0.09
73 | GGATGCACGTGGTATT | -0.17
74 | CGCGTCACGTGTGTGG | -0.04
75 | GTAGCCACGTGGTATG | -0.02
76 | TTTTACACGTGTGTGT | 0.19
77 | AGACGCACGTGGTTGT | -0.14
78 | GCGTTCACGTGCTGGA | 0.32
79 | AAGGGCACGTGTGCAT | -0.16
80 | CTTTCCACGTGGGTGG | -0.05
81 | GCTAGCACGTGGGTTA | -0.25
82 | GCATGCACGTGGGGCA | -0.04
83 | TGCCGCACGTGGTGGT | -0.17
84 | GAGTTCACGTGTGGGA | 0.3
85 | GTTCCCACGTGGGGGG | -0.28
86 | GTGTTCACGTGATTAT | 0.32
87 | AGCGGCACGTGGGACG | -0.19
88 | CATCTCACGTGTTGGT | 0.33
89 | TATTACACGTGGAGGT | 0.09
90 | AGGACCACGTGTTGTT | -0.06
91 | TATCTCACGTGGATGT | 0.34
92 | TTATTCACGTGTGTAA | 0.34

Row | Sequence | relative binding free energy [kcal/mol]
93 | ATGTACACGTGTCGTG | -0.13
94 | ATGTACACGTGAAGGG | 0.38
95 | TTATGCACGTGGTAGG | -0.05
96 | TATGTCACGTGACAAG | 0.21
97 | GATTACACGTGAATGG | 0.35
98 | TCAGACACGTGGTGGG | -0.01
99 | TTGGTCACGTGGCAGA | 0
100 | TTCTTCACGTGGTTCG | 0.24
101 | TTTTGCACGTGCGTCA | -0.08
102 | AACGGCACGTGGTGGC | -0.14
103 | TAACTCACGTGTGGGA | 0.25
104 | ATCTGCACGTGGTCGG | -0.17
105 | GGCCGCACGTGGGGTT | -0.16
106 | GTGGGCACGTGACGGA | -0.06
107 | GTATGCACGTGTGCGC | 0
108 | GATTGCACGTGGAGTT | 0.05
109 | GTGTACACGTGGGACT | 0.07
110 | TCCGGCACGTGGGTCG | -0.17
111 | GTTGTCACGTGTTGAG | 0.21
112 | TGTTGCACGTGCGGCA | -0.15
113 | GGTATCACGTGCGGGT | 0.05
114 | TTGTTCACGTGACTAG | 0.33
115 | TGGGGCACGTGCTAGT | -0.16
